Measurements from PMC12136788.
This is one part of the list.

T1: UNK ZnF1-6 (called full-length) (human, UniProt Q9C0B0 30-357)
T1 sequence: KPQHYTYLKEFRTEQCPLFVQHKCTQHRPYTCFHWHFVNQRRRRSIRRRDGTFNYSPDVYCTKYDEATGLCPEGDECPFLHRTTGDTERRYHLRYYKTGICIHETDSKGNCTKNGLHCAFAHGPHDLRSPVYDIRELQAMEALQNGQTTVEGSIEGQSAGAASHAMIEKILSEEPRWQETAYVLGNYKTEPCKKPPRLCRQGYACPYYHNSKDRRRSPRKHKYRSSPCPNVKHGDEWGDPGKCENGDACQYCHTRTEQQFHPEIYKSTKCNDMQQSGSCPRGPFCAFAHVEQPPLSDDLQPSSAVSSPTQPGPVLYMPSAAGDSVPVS

B1: chr17:59694590:59694691:+|3pUTR|ENSG00000141367|msi1|FALSE|unique (ssRNA)
RNA: GGGAGUUCUACAGUCCGACGAUCCUUGUGUGUGUUUACUAACCCUUCCCUGAGGUUUGUGUAUGUUGGAUAUUGUGGUGUUUUAGAUCACUGAGUGUACAGAAGAGAGAAAUUCAAACAAAAUAUUGCUGUUCUUCAGUUUUGCAACAGAGGAUUGAGCAUCA
B2: ENSG00000096384:stop:overlap|stop_codon|ENSG00000096384|stop_codon|NA|stop_codon (ssRNA)
RNA: GGGAGUUCUACAGUCCGACGAUCCUGAUGAGAUCCCCCCUCUCGAGGGCGAUGAGGAUGCGUCUCGCAUGGAAGAAGUCGAUUAGGUUAGGAGUUCAUAGUUGGAAAACUUGUGCCCUUGUAUAGUGUCCCCAUGGGCUCCCACAACAGAGGAUUGAGCAUCA
B3: chr19:21059139:21059240:+|3pUTR|ENSG00000118620|unk|FALSE|unique (ssRNA)
RNA: GGGAGUUCUACAGUCCGACGAUCGUAAAAAUGAAAAUAUUUAAUCCAAAAUUAAGUCUAUGUAAAUAUCAGAGAAUUUACUGUAGAAAUAUAUAAGGCACUGAGACUUCAGAUAUUAUACUAAAUCAGAGUGCUGAGUAUAGACAACAGAGGAUUGAGCAUCA
B4: chr12:49323620:49323721:+|CDS|ENSG00000135451|unk|FALSE|unique (ssRNA)
RNA: GGGAGUUCUACAGUCCGACGAUCAUCAUGACCACCCGGCAAGCCACGAAGGAUCCCCUCCUCCGGGGUGUAUCUCCUACCCCUAGCAAGAUUCCGGUACGCUCUCAGAAACGCACGCCUUUCCCCACUGUUACAUCGUGCGCCCAACAGAGGAUUGAGCAUCA
B5: ENSG00000198589:be:win_2101|CDS|ENSG00000198589|bound_else_gene|NA|bound_elsewhere_windowed (ssRNA)
RNA: GGGAGUUCUACAGUCCGACGAUCGUUGCAUUAAUGUCAGAACACCCUAACUCUAUGAUUCCUGCUUUUGACCAAAGGAAUGGGUUACGUGUUAUCUACAAACUUCUGGCAUCGAAAAGUGAAGGAAUCAGGGUACAAGCUCUUCAACAGAGGAUUGAGCAUCA
B6: chr8:143915506:143915607:-|3pUTR|ENSG00000178209|msi1|total|mutant (ssRNA)
RNA: GGGAGUUCUACAGUCCGACGAUCCCCCACACUCACUCCUGAGACCCCUGGCCUCCGGCGUCAGCCUCCAGCCUCUGUUCCCCCCGUAAGUGCCUUCCAUGUCGGCCUCUAACCCCAGGCCCCGAGGACCCAGACCCAGUGGGGCAACAGAGGAUUGAGCAUCA
B7: chr1:46316673:46316776:+|3pUTR|ENSG00000173660|unk|total|mutant (ssRNA)
RNA: GGGAGUUCUACAGUCCGACGAUCUGUUUCUUAUUUGUGUAACUGUAAGUUCACAUGAACCUCAUGGGUUUGGCUCCGGCUGGCCGCUUCUAUGUAAUUCGCAAUGAUUCCAUCUAAAUAAAAGUUCUAUGAUCUGCAAACCUGCAACAGAGGAUUGAGCAUCA
B8: chr18:35366693:35369214:-|three_prime_utr|ENSG00000186496|control|control|control (ssRNA)
RNA: GGGAGUUCUACAGUCCGACGAUCCAAAGCAUUUACUCAGAGCUAUUUCAGCACAAGGGAAGACACCAGAUGCAAACGCUCCUUAGUACAAAUCAGUGGUCUUAGUAAGCACCAGUCUCCUUUCAAGACUCAUGAAAGCCACAGCAACAGAGGAUUGAGCAUCA
B9: chr7:101138466:101138856:+|3pUTR|ENSG00000106366|msi1|total|mutant (ssRNA)
RNA: GGGAGUUCUACAGUCCGACGAUCGAGUGGGGGGACAGAGACUCAGAUGAGGACAGAGUGGUUUCCAAUGUGUUCAACCGAUUCCGGAGCAGAAAUGCAAGGGGCUGCAUGACCUACCAGGACAGAACUUUCCCCAAUUACAGGCAACAGAGGAUUGAGCAUCA
B10: chr14:100884374:100884478:-|CDS|ENSG00000254656|unk|total|mutant (ssRNA)
RNA: GGGAGUUCUACAGUCCGACGAUCGAGGAGUCAUGCAACGGUUCACACCAGGCAAGGGGGGAUCCACUCAGUGGAGCAUCUGACCGGAUGAAAGAAGCAUCAGUCAACCCAUCGGGAGCCCGAGAAGAACAAGAGGCUCACACUCAACAGAGGAUUGAGCAUCA
B11: chr20:38750096:38750197:+|CDS|ENSG00000101442|unk|total|mutant (ssRNA)
RNA: GGGAGUUCUACAGUCCGACGAUCGCAAAUGAUGUCUGAGCUUCUUUUUGAGUGCUACGGGAUUCCCAAGGUUGCCUAUGGAACCGACAGCCUCUUCAGCUUCUACCACAAUAAGCCAAAGAACUCGAUGUGCAGUGGGCUAAUCAACAGAGGAUUGAGCAUCA
B12: chr10:128098466:128098636:-|3pUTR|ENSG00000148773|msi1|FALSE|unique (ssRNA)
RNA: GGGAGUUCUACAGUCCGACGAUCUCCUUUCCUUUCUGAAAAUAAAGUUUUGUGCUUUGGAGAAUGACUCGUGAGCACAUCUUUAGGGACCAAGAGUGACUUUCUGUAAGGAGUGACUCGUGGCUUGCCUUGGUCUCUUGGGAACAACAGAGGAUUGAGCAUCA
B13: chr10:25598329:25598431:+|CDS|ENSG00000151025|unk|total|mutant (ssRNA)
RNA: GGGAGUUCUACAGUCCGACGAUCAUCGAUGUUACAGAAGUCUCUCAGUGUCACCGCAAGCGCCAAGGAGAAGACUCUUGGAUCCGCUGGGAAAACCCAAACAGCAGGUGUGGAAGAACGCACUAAAUCCCAGAAACCUUUGCCCAACAGAGGAUUGAGCAUCA
B14: chr12:6347307:6347408:-|3pUTR|ENSG00000111319|msi1|total|mutant (ssRNA)
RNA: GGGAGUUCUACAGUCCGACGAUCGUCUGCUCCUCCUCUUGAACUUGGGUGGGAAACCCCACCCAAAAGCCCCCUUUGUUACUCCGGCAAUUCCCCUUCCCUGACUCCCGAGGGCCCGGGCCCGAGCAGACCCGGGUAAGUAAACAACAGAGGAUUGAGCAUCA
B15: chr14:96489241:96489342:+|3pUTR|ENSG00000140057|unk|FALSE|unique (ssRNA)
RNA: GGGAGUUCUACAGUCCGACGAUCUAAAGUGUAUAAUUCAGUGGCACUAAGUUCAUUCACAAUGAUCUGCAGCCACCACUAUCUAGUCCAGAACUUUCUCAUCACCCCAAAUGGAAACCCAGCACCUAUUAGGCAGUCACGCUCCAACAGAGGAUUGAGCAUCA
B16: chr1:9614578:9614679:+|3pUTR|ENSG00000188807|msi1|total|mutant (ssRNA)
RNA: GGGAGUUCUACAGUCCGACGAUCUCCAGCUGCCAGCAAUGGUUCCAACUCGGAGGCAGCGCCUCUUGGUCCCCAUUUCUGUACCGCAGGCGUGUGUGUGUGUGUCGAGGUUUUUUAUUUUUUGCUUAAUCAAACUCCAUUCCCCAACAGAGGAUUGAGCAUCA
B17: chr9:88129304:88129631:-|three_prime_utr|ENSG00000177910|control|control|control (ssRNA)
RNA: GGGAGUUCUACAGUCCGACGAUCGACCAAGGCACUGUCUUUUUCAGGGAGGUAUCUAAUUUGGUCAGUCACAAAUUCCUUUUUAGCCUUCCCUAGAGAAAAACAAGUCACCAAGAAAAAAUUCACUCUAUGUAGAGGAAAAGUCAACAGAGGAUUGAGCAUCA
B18: chr12:50748518:50748596:+|3pUTR|ENSG00000066084|msi1_unk|total|mutant (ssRNA)
RNA: GGGAGUUCUACAGUCCGACGAUCUCAAAUUCAAACUACAGUACUGUGUAAUUAUGUAUAAAGUUUUUUUAUUUAUUUGAAGUCCGACCCGAUAUACGUUUUUAAAUUUAACAUCUGGCUGGACAGUGUUCUAUUAACUCAUUGCAACAGAGGAUUGAGCAUCA
B19: chr12:109450965:109451066:-|3pUTR|ENSG00000110906|msi1|FALSE|unique (ssRNA)
RNA: GGGAGUUCUACAGUCCGACGAUCGCCCGGGCACAAUCCCCACUGCUUUGCUAGACGUGCUUUCUGCCAUGUGGCUUUGGGCCUAGAGCUUGUUGAUAAUUGCAGCUUGUGGCAGUGGAAAUAUGGCUGAAUGAGCGUCUAAAUCAACAGAGGAUUGAGCAUCA
B20: chr2:32415736:32415837:+|CDS|ENSG00000115760|unk|FALSE|unique (ssRNA)
RNA: GGGAGUUCUACAGUCCGACGAUCGCAGAGGAAUGUUAGUGGUGGAUAUUUAGUGCUUUAUAAAAUGAAUUAUGCCACUCGGAUAGUGACUUUAGAAGAGGAGCCAAUAAAAAUACAACAUAUCAAAGAUCCCCAGGACACAAUCAACAGAGGAUUGAGCAUCA
B21: ENSG00000182118:stop:overlap|stop_codon|ENSG00000182118|stop_codon|NA|stop_codon (ssRNA)
RNA: GGGAGUUCUACAGUCCGACGAUCGGGACUUGUCACUGCCUGUCUCCUCCCUCUCCAGCAGCGACUGGAUUCUGGAGUCCAUCUAGAGGGUCUUGGGAGGGAUGUGACUGUUGGGAAGCCCUUCCUACUGGACACGCUGUCAUCCAACAGAGGAUUGAGCAUCA
B22: chr5:37007335:37007444:+|CDS|ENSG00000164190|unk|total|mutant (ssRNA)
RNA: GGGAGUUCUACAGUCCGACGAUCAGGCUUAUUAAGUUCAAAAGCAAAACGGGCUAAAUGUUCUACCCAUAAGCAGAGAGUAACCGUAAUGCUUUAUAACAAAGUUUGUGACAUUGUCCGCAGCUUAUCAGAAUUGCCCGAGAUCAACAGAGGAUUGAGCAUCA

Target: T1, UNK ZnF1-6 (called full-length)
Assay: nsRBNS (natural sequence RNA bind-n-seq); RBNS binding buffer (assumed for nsRBNS): 25 mM Tris pH 7.5, 150 mM KCl, 3 mM MgCl2, 0.01% Triton X-100, 500 ug/ml BSA, 20 U/ml SUPERase-In, 4 C; UNK is unkempt and MSI1 is Musashi-1; names of the RNAs are library labels; protein concentration not given here; high values mean tight binding

| Binder | binding signal |
| --- | --- |
| B1 | 0.646 enrichment R |
| B2 | 1.13 enrichment R |
| B3 | 0.868 enrichment R |
| B4 | 0.962 enrichment R |
| B5 | 0.563 enrichment R |
| B6 | 0.723 enrichment R |
| B7 | 0.349 enrichment R |
| B8 | 1.53 enrichment R |
| B9 | 0.923 enrichment R |
| B10 | 0.84 enrichment R |
| B11 | 0.458 enrichment R |
| B12 | 0.498 enrichment R |
| B13 | 0.604 enrichment R |
| B14 | 0.879 enrichment R |
| B15 | 0.624 enrichment R |
| B16 | 0.834 enrichment R |
| B17 | 0.241 enrichment R |
| B18 | 1.16 enrichment R |
| B19 | 0.65 enrichment R |
| B20 | 1.35 enrichment R |
| B21 | 0.628 enrichment R |
| B22 | 0.177 enrichment R |
